# Source: the supplement of paper PMC9446081
# The campaign covered roughly 39,000 compounds. About 220 (0.56%) showed activity. Some of the results follow.
# Tested on: Escherichia coli K-12 BW25113
# Test: relative growth (OD600 normalised to plate interquartile mean) (fraction); higher = less growth inhibition, active = 0.2 or less
# Conditions: 50 µM; LB; incubation time: overnight (16-24 h)
# 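Further: static incubation at 37 °C against the wild-type strain, values averaged over two biological replicates.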
row,SMILES,relative growth
1,C[C@@H]1CCCCO[C@H](CN(C)S(=O)(=O)c2cccs2)[C@H](C)CN([C@H](C)CO)C(=O)c2cc(NC(=O)Cc3ccccc3)ccc2O1,inactive: 1.03
2,COc1cc(OC)nc([C@@H](NC(=O)C2CCN(Cc3ccc(Oc4ccccc4)cc3)CC2)c2ccccc2C)n1,inactive: 1.02
3,C[C@@H]1CCCCO[C@@H](CN(C)S(=O)(=O)c2ccccc2)[C@H](C)CN([C@H](C)CO)C(=O)c2cc(NC(=O)CCC(F)(F)F)ccc2O1,inactive: 1
4,COc1ccccc1CNC(=O)C[C@H]1C[C@@H]2c3cc(NC(=O)Nc4ccc(C(F)(F)F)cc4)ccc3O[C@@H]2[C@@H](CO)O1,inactive: 0.968
5,O=C(N[C@H]1C=C[C@H](CC(=O)N2CCOCC2)O[C@@H]1CO)c1ccc2c(c1)OCO2,inactive: 0.988
6,C[C@@H]1CN([C@@H](C)CO)C(=O)c2cc(NS(=O)(=O)c3cccs3)ccc2O[C@@H](C)CCCCO[C@@H]1CN(C)C(=O)Nc1ccccc1,inactive: 1.01
7,Cc1ccc(S(=O)(=O)NCC[C@H]2CC[C@@H](NS(=O)(=O)c3ccccc3Cl)[C@@H](CO)O2)cc1,inactive: 1
8,C[C@@H]1CN([C@H](C)CO)C(=O)c2cc(NC(=O)C3CCCCC3)ccc2O[C@@H](C)CCCCO[C@@H]1CN(C)C(=O)NC1CCCCC1,inactive: 0.995
9,C[C@@H]1CN([C@@H](C)CO)C(=O)c2cccc(NC(=O)NC3CCCCC3)c2O[C@H]1CN(C)Cc1ccc(-c2ccccc2)cc1,inactive: 0.97
10,C[C@H]1CN([C@@H](C)CO)C(=O)Cc2cc(NC(=O)Cn3cnnn3)ccc2O[C@H]1CN(C)Cc1ccc(C(=O)Nc2ccccc2N)cc1,inactive: 0.978
11,C[C@@H]1CN([C@@H](C)CO)C(=O)c2cc(NC(=O)c3ccncc3)ccc2O[C@H]1CN(C)S(=O)(=O)c1ccc(F)cc1,inactive: 1.01
12,C[C@@H]1CN([C@H](C)CO)C(=O)CCCn2cc(nn2)CO[C@@H]1CN(C)C(=O)c1ccc(N2CCN(C)CC2)cc1,inactive: 0.999
13,C[C@H]1CCCCO[C@H](CN(C)S(=O)(=O)c2ccc(F)cc2)[C@@H](C)CN([C@@H](C)CO)C(=O)c2cc(NC(=O)CCC(F)(F)F)ccc2O1,inactive: 1
14,Cc1noc(C)c1S(=O)(=O)N(C)C[C@H]1Oc2c(NC(=O)c3cnccn3)cccc2C(=O)N([C@@H](C)CO)C[C@H]1C,inactive: 1.01
15,Cc1cc(C)c(C)c(C(=O)O)c1C,inactive: 0.975
16,Cc1noc(C)c1NC(=O)N[C@H]1C=C[C@H](CC(=O)N2CCN(C)CC2)O[C@@H]1CO,inactive: 0.984
